± gives the standard deviation of the averaged measurements. The list shows a part of the results.
What follows are sequences tested on PfAP2-EXP AP2 domain (GST-tagged) (assay: gcPBM binding intensity (ln(normalized median fluorescence intensity)); higher = stronger DNA binding).
Procedure, shortened: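 Each value is the highest Masliner-normalised natural-log median intensity across replicate spots of either orientation of a probe. The probes were primer-extended double-stranded 36-bp intergenic genomic sequences on an Agilent 4 × 180k array, alongside negative controls, exposed for 1 h to GST-tagged P. falciparum DNA-binding domains expressed in E. coli. Bound protein was picked up with Alexa488 anti-GST antibody and scanned at 488 nm.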
“ATAATATATATACAAACACACAATTGCGTCCACATT [CACACA_site8515]” was tested, and the “gcPBM binding intensity (ln)” value was 8.94 ± 0.31.
For “TTGTTAATAAAAATATTGGAAAGTTTATAAAATTTT [CACACA_negctrl_site1487]”, the “gcPBM binding intensity (ln)” value was 8.1 ± 0.43.
With “TTATTTTCTTTTTCTTGTACACACATAATATGGATG [XGTACX_site1481]” the “gcPBM binding intensity (ln)” value was 8.75 ± 0.47.
In the case of “TTATTTTTTAGTAGTACACACTTTTTGTACCTTTTA [CACACA_site4503]”, the “gcPBM binding intensity (ln)” value is reported as 8.69 ± 0.3.
In the case of “CTTACCAAAAAACACACACACACAAAATATATAAAT [CACACA_site1870]”, the “gcPBM binding intensity (ln)” value is reported as 8.85 ± 0.59.
In the case of “GACACCCATAAATATACACACGCACAACACAAAATA [CACACA_site8944]”, the “gcPBM binding intensity (ln)” value is reported as 8.76 ± 0.47.
In the case of “CTAAAAGAACATGTGTGTACTTATGTTCTCTTTTTT [XGTACX_site5983]”, the “gcPBM binding intensity (ln)” value is reported as 8.35 ± 0.47.
In the case of “AATAAAAAAAAAAAAAAAAAAAAAAAGACACTAAAA [CACACA_negctrl_site1075]”, the “gcPBM binding intensity (ln)” value is reported as 8.18 ± 0.6.
In the case of “ATTTTTTTTATGTATTATGCTTTTATATCCTTCATA [CACACA_negctrl_site1244]”, the “gcPBM binding intensity (ln)” value is reported as 9.01 ± 0.5.
With “AAAGAATTTGCATATACACACAAAAAAATAAATACA [CACACA_site4373]” the “gcPBM binding intensity (ln)” value was 8.49 ± 0.2.
In the case of “ATTTCTTTTACATTTACATGCAATGCTCTATAGATA [TGCATGCA_site62]”, the “gcPBM binding intensity (ln)” value is reported as 9.23 ± 0.44.
“ATATATATATACATATGTACATATATATTTATACAT [XGTACX_site2463]” was tested, and the “gcPBM binding intensity (ln)” value was 9.64 ± 0.33.
For “TACACAGACGGACACACACACACACTAGAAAAAAAA [CACACA_site4435]”, the “gcPBM binding intensity (ln)” value was 8.49 ± 0.37.
With “AATGCACTATTTAAAAGTACACATAAGAAAAGCATA [XGTACX_site1739]” the “gcPBM binding intensity (ln)” value was 9.2 ± 0.37.
With “GCTAAACAATAGTTTGCACACAATTTAAATATATAT [CACACA_site193]” the “gcPBM binding intensity (ln)” value was 8.46 ± 0.25.
For “AATATAATATAATGCACACATAAAAAAAAAAAAATC [CACACA_site1303]”, the “gcPBM binding intensity (ln)” value was 8.7 ± 0.32.
In the case of “TTATATACATTAAATGAACACACATAAATAAATTAC [CACACA_site8927]”, the “gcPBM binding intensity (ln)” value is reported as 8.67 ± 0.38.
In the case of “AGTATAAATATATTATGTACATATATATTATACTTA [XGTACX_site2623]”, the “gcPBM binding intensity (ln)” value is reported as 8.38 ± 0.14.
In the case of “ATTATAGACAACTCTTTTTCTAAACTATTTTATTTT [CACACA_negctrl_site1754]”, the “gcPBM binding intensity (ln)” value is reported as 8.73 ± 0.31.
In the case of “CATAATATTTGTGAAAGTACTTATTTTACAATAGGG [XGTACX_site5004]”, the “gcPBM binding intensity (ln)” value is reported as 8.84 ± 0.69.
With “AAAAAAAAAAAAAACACACACACACGCAGATATATA [CACACA_site6672]” the “gcPBM binding intensity (ln)” value was 8.78 ± 0.64.
In the case of “TTTATTCTCCACACCCGTACACATTTTTTTTGCATA [XGTACX_site5615]”, the “gcPBM binding intensity (ln)” value is reported as 9.29 ± 0.47.
For “TTTCTTAAAATATAAAGTACTAAAATGAAAATATAT [XGTACX_site2173]”, the “gcPBM binding intensity (ln)” value was 8.66 ± 0.49.
With “AAATAAAGAAATATATGTACATATATATATATATAT [XGTACX_site5131]” the “gcPBM binding intensity (ln)” value was 10.4 ± 0.28.
For “ATAAATAAATAAATAAATATATATATGAAATAATGT [TGCATGCA_negctrl_site12]”, the “gcPBM binding intensity (ln)” value was 8.7 ± 0.42.
“TTTTCTATAAGATTTGCACACAACTTATTCTATTAA [CACACA_site3752]” was tested, and the “gcPBM binding intensity (ln)” value was 8.63 ± 0.27.
For “CTTCTTTTGTGATAAAGTACAAATATTTTGAAATAT [XGTACX_site1156]”, the “gcPBM binding intensity (ln)” value was 8.51 ± 0.3.
With “AAAAAATATAAAACGAGTACATATATAATAAGCAAA [XGTACX_site1360]” the “gcPBM binding intensity (ln)” value was 9.01 ± 0.33.
With “TAAATTATAACGTGCACACATATTTAAAATGAAATG [CACACA_site2820]” the “gcPBM binding intensity (ln)” value was 9.4 ± 0.61.
With “TGTTGTTACAGATATACACACATATATATATTATAT [CACACA_site5342]” the “gcPBM binding intensity (ln)” value was 8.55 ± 0.41.
“TTGGGTGCATATATTTGTACACATTATTTCTATTTT [XGTACX_site3688]” was tested, and the “gcPBM binding intensity (ln)” value was 9.64 ± 1.4.
In the case of “ATAAACATGGAAATGTATTAAAAGCAAGTATATAAA [XGTACX_negctrl_site516]”, the “gcPBM binding intensity (ln)” value is reported as 8.87 ± 0.3.
For “AAAAAAAATTTCTTCACACATAAATAAATAAATAAA [CACACA_site4841]”, the “gcPBM binding intensity (ln)” value was 8.55 ± 0.26.
“TGCATTTATATCTTCACACATATATATATATATATA [CACACA_site4516]” was tested, and the “gcPBM binding intensity (ln)” value was 10.2 ± 0.42.
With “ATATGTATATATACATGTACATATTTTTCCTTTCTT [XGTACX_site149]” the “gcPBM binding intensity (ln)” value was 8.55 ± 0.44.
With “ATGTAATAAAATAATTGTACAATGTAACTAATTTTT [XGTACX_site2871]” the “gcPBM binding intensity (ln)” value was 8.55 ± 0.28.
For “ATTAAAAATTCAATTGCACACGCACATATTTTAATA [CACACA_site8618]”, the “gcPBM binding intensity (ln)” value was 8.45 ± 0.21.
In the case of “TATATATATATATATACACACACACCCATATATATA [CACACA_site8812]”, the “gcPBM binding intensity (ln)” value is reported as 10.3 ± 0.3.
For “ACATAAATAAATTAATGTACATATATATTTGTATAT [XGTACX_site3160]”, the “gcPBM binding intensity (ln)” value was 8.36 ± 0.28.
With “TTTTTTTTTTTTTCAAGTACATATATATATATATAA [XGTACX_site2098]” the “gcPBM binding intensity (ln)” value was 8.44 ± 0.45.
With “TTTTTATATGTTAAGTGTACGTTTACATTTTATACT [XGTACX_site3485]” the “gcPBM binding intensity (ln)” value was 8.63 ± 0.36.
With “TATTATGTATGTATATGTACGTATCTTATTTTATTT [XGTACX_site5008]” the “gcPBM binding intensity (ln)” value was 8.52 ± 0.47.
With “TTTTTTGTATTTTTCACACACACATAAGTAAACAAT [CACACA_site1900]” the “gcPBM binding intensity (ln)” value was 8.74 ± 0.46.
“TATACATACATTAGACGTACACATTTTACCTACACC [XGTACX_site3586]” was tested, and the “gcPBM binding intensity (ln)” value was 8.84 ± 0.46.
